About 14,000 (4.5%) of roughly 310,000 compounds showed an effect of 50% or more. The effect is printed as a negative number. The list shows a part of the results.
target: human ether-à-go-go-related gene (hERG) potassium channel (human, UniProt Q12809); assay: primary screen, population patch clamp on CHO cells stably expressing hERG
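Further: peak tail current of the secondary pulse compared with the same well before compound.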

Chain of human ether-à-go-go-related gene (hERG) potassium channel (Q12809 whole entry, looked up): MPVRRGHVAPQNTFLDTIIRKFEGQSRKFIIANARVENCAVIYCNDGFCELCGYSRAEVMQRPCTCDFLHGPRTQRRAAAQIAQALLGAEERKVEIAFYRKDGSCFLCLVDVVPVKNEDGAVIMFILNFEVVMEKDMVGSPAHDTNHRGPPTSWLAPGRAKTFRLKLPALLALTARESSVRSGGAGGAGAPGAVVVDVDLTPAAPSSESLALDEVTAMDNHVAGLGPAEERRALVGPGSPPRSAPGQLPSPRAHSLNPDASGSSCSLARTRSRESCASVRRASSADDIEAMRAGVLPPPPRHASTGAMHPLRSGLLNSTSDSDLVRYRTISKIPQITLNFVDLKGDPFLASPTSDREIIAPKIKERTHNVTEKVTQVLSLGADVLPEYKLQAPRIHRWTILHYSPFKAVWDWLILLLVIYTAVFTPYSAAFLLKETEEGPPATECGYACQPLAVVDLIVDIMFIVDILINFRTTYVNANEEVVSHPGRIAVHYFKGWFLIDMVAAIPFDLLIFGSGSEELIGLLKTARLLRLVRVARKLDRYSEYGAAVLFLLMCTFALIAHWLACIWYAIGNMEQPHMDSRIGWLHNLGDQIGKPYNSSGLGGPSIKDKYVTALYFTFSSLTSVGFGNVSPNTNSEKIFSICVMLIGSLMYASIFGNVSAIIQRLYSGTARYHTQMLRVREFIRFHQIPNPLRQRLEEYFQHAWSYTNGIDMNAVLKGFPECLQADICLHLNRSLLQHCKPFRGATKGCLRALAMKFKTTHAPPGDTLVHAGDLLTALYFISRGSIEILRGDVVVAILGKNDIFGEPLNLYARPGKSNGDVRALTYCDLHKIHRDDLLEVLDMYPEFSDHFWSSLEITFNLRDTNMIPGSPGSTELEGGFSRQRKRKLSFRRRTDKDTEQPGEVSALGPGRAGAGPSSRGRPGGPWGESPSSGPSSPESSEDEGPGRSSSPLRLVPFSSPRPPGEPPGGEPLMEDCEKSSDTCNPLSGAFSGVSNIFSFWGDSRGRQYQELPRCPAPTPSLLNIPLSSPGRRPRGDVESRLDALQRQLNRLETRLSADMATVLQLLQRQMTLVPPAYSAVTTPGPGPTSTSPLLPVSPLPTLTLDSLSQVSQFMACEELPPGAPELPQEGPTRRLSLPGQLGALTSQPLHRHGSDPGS

SMILES | hERG current change (%, negative = inhibition) at 10uM [%]
COc1ccc(CC(=O)OCC(=O)Nc2ccc(Br)cc2)cc1 | 2.68
O=S(=O)(c1cccc(F)c1)N1CCN(c2ncnc3scc(-c4ccc(F)cc4)c23)CC1 | 0.83
CCCC(c1nnnn1CC1CCCO1)N1CCN(c2cc(Cl)ccc2C)CC1.Cl (stereo not shown) | -8.06
CC(CNc1ccccc1O)C(=O)O (stereo not shown) | 7.33
CSc1ncccc1C(=O)NCCc1ccccc1F | 18.7
CCCS(=O)(=O)N1CCCC(C(=O)NCCCOC(C)C)C1 (stereo not shown) | 5.98
C=CC(=O)NC(C)(C)Cc1ccccc1 | 3.63
O=C(Nn1c(=S)[nH]c2ccccc2c1=O)c1ccncc1 | 11.8
COc1ccc(C(=O)CC(=O)c2ccc(F)cc2)cc1 | 24.1
O=C(Nc1ccc(Cl)cc1)OCc1cn(-c2ccc(Cl)cc2)nn1 | 4.47
CCOC(=O)c1c(CN2CCCCC2C)oc2ccc(OC)cc12.Cl (stereo not shown) | -58.9
Cc1ccc(NC(=O)C2CCN(S(=O)(=O)c3cccs3)CC2)cc1C | -31.1
FC(F)(F)c1ccccc1NC1=NCCCS1 | 2.83
COc1ccc(S(=O)(=O)N(CC(C)C)CC(C)C)c2cccnc12 | -31.3
CC1CN(C(=O)CCNC(=O)c2ccccc2Cl)CC(C)O1 (stereo not shown) | 19.5
Nc1c(Cl)ncnc1N/N=C/c1ccncc1 | 10.2
O=C(Cc1c(Cl)cccc1Cl)Nc1ccc(S(=O)(=O)Nc2ncccn2)cc1 | 20.7
COc1ccc(N(Cc2cc3cc(OC)ccc3[nH]c2=O)C(=O)c2cccnc2)cc1 | -5.1
Cc1ccc(C)c(N2CCN(C(=O)CCCCn3c(=O)[nH]c4ccccc4c3=O)CC2)c1 | -25.2
CCn1nc(Cc2cccc3ccccc23)c(C#N)c1N | -15
CC(=O)c1cc(C#N)c(N2CCCC2)nc1C | 15.1
CN1CCC(=O)N([C@H](COc2ccccc2)Cc2ccccc2)CC1 | -28.5

SMILES | hERG current change (%, negative = inhibition) at 10uM [%]
CC(=O)Nc1ccc(NC(=O)CSc2nnc(NC(=O)C3CC(=O)N(c4ccccc4)C3)s2)cc1 (stereo not shown) | 8.38
COc1cccc(NC(C)C(=O)N2CC(C)OC(C)C2)c1 (stereo not shown) | -1.96
CC1CC(C)CN(C(=O)c2ccc(S(=O)(=O)N3CC(C)CC(C)C3)cc2)C1 (stereo not shown) | -36.9
COc1ccccc1S(=O)(=O)CC(O)COc1ccc(F)cc1Cl (stereo not shown) | -3.29
CCN(CC(=O)Nc1ccc(NC(C)=O)cc1)C(=O)C1CC(=O)N(CCc2ccc(OC)c(OC)c2)C1 (stereo not shown) | -10.7
CNC(=S)NCCCc1ccccc1 | 7.97
CS(=O)(=O)Nc1ccc(C(=O)N2CCc3ccccc3C2)cc1 | -23
CCOC(=O)c1cccc(-c2c(-c3ccccc3)ncc3cc(OC)c(OC)cc23)c1 | 4.03
Cn1nc(C(=O)OCC(=O)c2ccc[nH]2)c2ccccc2c1=O | 3.25
CC1(C)Cc2nc3oc4c(N(CCO)Cc5ccccc5)ncnc4c3cc2CO1 | -65.6
O=C1COc2ccccc2N1Cc1ccc(Cl)cc1 | -20.4
Cc1ccc(N)c(C(=O)CCCCC(=O)O)c1 | 7.01
Cc1ccc(CN(Cc2ccccn2)C(=O)Nc2ccc(C)c(C)c2)cc1 | -3.1
Cc1nc2ccc(NC(=O)c3cnc(Cl)c(Cl)c3)cc2s1 | 2.5
CCN(CC)CCN1C(=O)C(=O)/C(=C(/O)c2ccc(S(=O)(=O)N3CCOCC3)cc2)C1c1ccc(C(C)(C)C)cc1 (stereo not shown) | 26.1
COc1ccc(OC)c(CN2C(=O)c3ccccc3C2C(=O)NCC2CCCO2)c1 (stereo not shown) | 17.2
CN(C)CCCN(Cc1cc2cc3c(cc2[nH]c1=O)OCO3)C(=S)NCc1ccco1 | -19.2
CCC(=NCCCN1CCOCC1)c1c(O)n(Cc2ccccc2)c(=O)[nH]c1=O | -40.3
CC(C)CC(=O)NC(=S)NCCc1ccccc1 | -7.46
CCNc1nc(NCC)nc(Oc2ccc(N)cc2)n1 | -2.38
O=[N+]([O-])c1ccccc1S(=O)(=O)N1CCCCC1 | 1.38
Cc1cccc(CN2CCc3c([nH]c4ccccc34)C2)c1 | -33.4

SMILES | hERG current change (%, negative = inhibition) at 10uM [%]
COc1ccc(OC)c(N2C(N)=C(C#N)C(c3ccc(OC)c(O)c3)C3=C2CC(C)(C)CC3=O)c1 (stereo not shown) | 2.66
O=C(/C=C/c1cccc(F)c1)NC1CCN(Cc2ccccc2)CC1 | -70.6
CCCc1ccc2oc(C(=O)N3CCC(N4CCCC(O)C4)CC3)c(C)c2c1 (stereo not shown) | -36.3
CCOC(=O)Cc1csc(NC(=O)C2C3C=CC(C3)C2C(=O)O)n1 (stereo not shown) | 5.58
Cc1ccc(C2=N/C(=C\c3cccc(F)c3)C(=O)O2)cc1 | 16.5
COc1cc(C#N)ccc1OC(=O)c1cccc(S(=O)(=O)N2CCN(C)CC2)c1 | -36
CN(C(=O)COC(=O)c1cc(F)c(F)cc1Cl)c1ccccc1 | 0.987
COc1ccc(CCC(=O)Nc2ccc(S(=O)(=O)N3CCOCC3)cc2)cc1 | -4.24
COc1ccccc1CNS(=O)(=O)c1ccc(-n2cnnn2)c(OC)c1 | -27.7
CC(/C=N/Nc1ncc(C)c(=O)[nH]1)=C\c1ccccc1 | -53
N#Cc1ccc(/C=C2\CCCCn3c2nc2cc(C(=O)O)ccc2c3=O)cc1 | 21.8
Cc1ccc(C(NC(=O)N2CCCC2)C(Cl)(Cl)Cl)cc1F (stereo not shown) | 19.1
Cc1onc(C(=O)Nc2cccc(C(F)(F)F)c2)c1[N+](=O)[O-] | -5.76
CCOc1ccc(CN(C)C(=O)CNC(=O)C2CCCCC2)cc1OC | 8.89
Cc1onc(-c2ccccc2)c1-c1ccnc(N)n1 | -2.21
COc1ccc(NC(=O)CCC(=O)Nc2cc(OC)c(NC(=O)c3cccs3)cc2OC)cc1 | -5.28
CCN(CC)/C(=N/O)NC(=O)NS(=O)(=O)c1ccc(C)cc1 | 15.3
CN(C)CCSCc1nnc2n1-c1ccc(Cl)cc1C(c1ccccc1Cl)=NC2.c1ccccc1 | -73.7
CCC1=Nc2cc(C(=O)NCC3CCCO3)ccc2Sc2ccc(Br)cc21 (stereo not shown) | -3.69
Cc1cc(-c2nnc(-c3cc4ccccc4oc3=O)o2)c(C)n1-c1ccccc1 | -1.1
CC(C)CCCN1C(Nc2ccccc2)=NC[C@@H]1Cc1ccccc1 | -62.3
CCN(CC(=O)Nc1ccc(OC)cc1)C(=O)c1ccc([N+](=O)[O-])cc1 | -19.6

SMILES | hERG current change (%, negative = inhibition) at 10uM [%]
Cc1ccc(CNC(=O)C2(C)Oc3ccccc3NC2=O)cc1 (stereo not shown) | -4.26
CCN(CC(=O)NC(=O)NC1CCCC1)Cc1ccccc1 | 3.93
Cc1cc(C)nc(Nc2ccc(N3CCOCC3)cc2)n1 | -5.99
Cc1cc(C)c(S(=O)(=O)N2CCOC2CNC(=O)C(=O)NCCCN2CCCC2=O)c(C)c1 (stereo not shown) | 17.5
O=[N+]([O-])c1ccc2nc(-c3ccc(OC(F)F)cc3)cn2c1 | -46
CC1(C)OC(C)(C)/C(=C\c2ccc(OCC(N)=O)cc2)C1=O | -3.7
O=C(O)c1ccc(/C=N/Nc2ccc(S(=O)(=O)N3CCCC3)cc2[N+](=O)[O-])cc1 | 9.45
CCCCn1c(CN2CCN(c3ccc(F)cc3)CC2)nc2c1c(=O)n(C)c(=O)n2C | -25
CSCCCNC(=S)N1CCc2ccccc2C1 | 9.78
O=C(N/N=C/c1ccc(OC(=O)c2cccc(F)c2)cc1)c1cccnc1 | -69.6
Cc1cc(C)nc(OC(C(=O)O)C(OCc2ccccc2)(c2ccccc2)c2ccccc2)n1 (stereo not shown) | 21.7
O=C(NC1=NCCS1)C1Cc2ccccc2CN1C(=O)c1ccccc1 (stereo not shown) | -4.49
CCn1cc(C(=O)N[C@H](C(=O)NCCCn2ccnc2)C(C)C)c(=O)c2cc3c(cc21)OCO3 | 1.82
Cc1c(C(=O)Nc2ccc(F)cc2)cn2c(nc3ccccc32)c1C#N | -1.75
CC1(C)C2CCC(C2)C1(C)NC(=O)CN1CCCC1.Cl (stereo not shown) | -0.213
CCCn1c(=O)[nH]c(=O)c2c1nc(-c1cc([N+](=O)[O-])ccc1Cl)n2CCOC | -16.8
O=S(=O)(c1ccc(Cl)c(S(=O)(=O)N2CCCC2)c1)N1CCCC1 | 1.54
COc1ccc(/C=C(\NC(=O)/C=C/c2ccco2)C(=O)NCCc2nc3ccccc3[nH]2)cc1 | -56.6
O=C(CSc1nnc(-c2ccco2)n1-c1ccccc1Cl)Nc1cccc(C(=O)O)c1 | 14.7
N#Cc1ccsc1NC(=O)c1ccc(Cl)c([N+](=O)[O-])c1 | 21
O=C(Nc1cc(C(F)(F)F)ccc1Cl)c1ccc(NC(=O)C(F)(F)F)cc1 | 0.159
N#Cc1ccc(COc2ccc(CCO)cc2-n2nc3ccccc3n2)cc1 | -66.6

— publication PMC4336329 (PLoS ONE, 2015)
